Test results as given in article PMC4336329 (PLoS ONE, 2015).
In all, about 310,000 compounds went through this assay and about 2,200 (0.71%) showed an effect of 50% or more. The effect is printed as a negative number. Some of the results follow.

These compounds were tested against human ether-à-go-go-related gene (hERG) potassium channel (human, UniProt Q12809) (assay: primary screen, population patch clamp on CHO cells stably expressing hERG).
Chain of human ether-à-go-go-related gene (hERG) potassium channel (Q12809 whole entry, looked up): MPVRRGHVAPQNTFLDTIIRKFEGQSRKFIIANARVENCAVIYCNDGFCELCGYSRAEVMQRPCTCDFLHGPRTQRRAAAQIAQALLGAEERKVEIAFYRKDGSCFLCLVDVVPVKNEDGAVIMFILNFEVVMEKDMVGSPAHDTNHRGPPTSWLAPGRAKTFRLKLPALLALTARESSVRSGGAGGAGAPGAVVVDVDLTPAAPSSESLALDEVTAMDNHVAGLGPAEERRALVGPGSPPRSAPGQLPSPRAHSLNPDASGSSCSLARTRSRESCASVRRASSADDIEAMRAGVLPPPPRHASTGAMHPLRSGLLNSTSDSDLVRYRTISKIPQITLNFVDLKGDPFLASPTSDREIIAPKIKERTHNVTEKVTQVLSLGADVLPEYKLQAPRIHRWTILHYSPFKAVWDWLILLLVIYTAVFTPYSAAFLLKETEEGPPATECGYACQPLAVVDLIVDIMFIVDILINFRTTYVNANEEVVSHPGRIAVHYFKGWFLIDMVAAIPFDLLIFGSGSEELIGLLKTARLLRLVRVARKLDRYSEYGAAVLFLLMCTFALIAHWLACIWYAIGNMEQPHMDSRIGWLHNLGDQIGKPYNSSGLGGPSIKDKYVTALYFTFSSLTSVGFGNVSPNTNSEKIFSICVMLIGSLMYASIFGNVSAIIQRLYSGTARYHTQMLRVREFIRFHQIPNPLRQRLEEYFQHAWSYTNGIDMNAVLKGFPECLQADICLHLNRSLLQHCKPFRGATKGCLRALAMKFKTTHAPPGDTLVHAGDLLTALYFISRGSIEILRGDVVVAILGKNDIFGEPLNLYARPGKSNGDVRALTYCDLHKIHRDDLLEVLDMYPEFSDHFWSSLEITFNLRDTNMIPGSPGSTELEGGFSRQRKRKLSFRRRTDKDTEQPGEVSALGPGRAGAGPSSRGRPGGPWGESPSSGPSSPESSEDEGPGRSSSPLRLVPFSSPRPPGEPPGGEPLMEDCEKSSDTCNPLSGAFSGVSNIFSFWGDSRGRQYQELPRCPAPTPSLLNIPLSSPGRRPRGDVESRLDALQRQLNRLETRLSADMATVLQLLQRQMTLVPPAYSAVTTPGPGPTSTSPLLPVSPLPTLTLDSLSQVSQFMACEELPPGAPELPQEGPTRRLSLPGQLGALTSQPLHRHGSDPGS
For `O=C(Cc1ccccc1)N1CCN(Cc2cccc(Cl)c2)CC1.O=C(O)C(=O)O`, the “hERG current change (%, negative = inhibition) at 1uM” value was 8.53%.
For `Cc1ccsc1C(=O)OCC(=O)NCC1CCCO1` (stereo not drawn), the “hERG current change (%, negative = inhibition) at 1uM” value was 3.16%.
With `CN(C)c1ccc(/C=C2\CC3C4CC=C5CC(O)CCC5(C)C4CCC3(C)C2=O)cc1` (stereo not drawn) the “hERG current change (%, negative = inhibition) at 1uM” value was 9.15%.
With `Cc1cccc(NC(=O)CSCc2cc(=O)n3nc(C4CC4)sc3n2)c1` the “hERG current change (%, negative = inhibition) at 1uM” value was 11.8%.
In the case of `CC1CCCCC1N1CN=C(Nc2nc3ccccc3s2)NC1` (stereo not drawn), the “hERG current change (%, negative = inhibition) at 1uM” value was -1.41%.
For `COc1ccc(C2CC(c3ccc(Cl)cc3)n3nc(N)nc3N2)cc1` (stereo not drawn), the “hERG current change (%, negative = inhibition) at 1uM” value was 2.81%.
`O=C1c2sc3nc4ccccc4n3c2C(=O)N1c1ccccc1Cl` was tested, and the “hERG current change (%, negative = inhibition) at 1uM” value was 12.2%.
In the case of `COc1ccc(S(=O)(=O)Nc2ccc3c(c2)OCO3)cc1C(=O)O`, the “hERG current change (%, negative = inhibition) at 1uM” value was 11.8%.
For `Cn1c(COc2ccccc2)nnc1SCc1nc2ccccc2[nH]1`, the “hERG current change (%, negative = inhibition) at 1uM” value was 9.91%.
With `CCC(C)c1ccccc1N1CC(C(=O)N2CCN(S(=O)(=O)c3ccc(F)cc3)CC2)CC1=O` (stereo not drawn) the “hERG current change (%, negative = inhibition) at 1uM” value was 5.43%.
`CCn1cc(C(=O)O)c(=O)c2cc(F)c(N3CCN(C(=S)NC(=O)c4ccc(Br)cc4)CC3)cc21` was tested, and the “hERG current change (%, negative = inhibition) at 1uM” value was 10.8%.
For `N/C(Cn1cncn1)=N\OC(=O)c1ccc(Cl)cc1`, the “hERG current change (%, negative = inhibition) at 1uM” value was 1.86%.
With `O=C(NN1CCOCC1)c1ccccc1` the “hERG current change (%, negative = inhibition) at 1uM” value was -6.16%.
For `Cc1onc(-c2c(Cl)cccc2Cl)c1C(=O)NCCCN1CCOCC1`, the “hERG current change (%, negative = inhibition) at 1uM” value was 4.43%.
`CCOC(=O)c1ccc(NC(=O)C(=O)NCc2ccc(/C=C(/C#N)C(=O)NCCOC)o2)cc1` was tested, and the “hERG current change (%, negative = inhibition) at 1uM” value was 2.09%.
`Cc1ccnc(SCC(N)=O)n1` was tested, and the “hERG current change (%, negative = inhibition) at 1uM” value was 4.83%.
For `COc1cc2c(cc1OC)CN(CC(=O)NC(=O)NC1CCCCC1)CC2`, the “hERG current change (%, negative = inhibition) at 1uM” value was 6.55%.
In the case of `O=C(CSC1=NC(=O)C(Cc2ccccc2)C(=O)N1)Nc1ncc(Br)cc1Br` (stereo not drawn), the “hERG current change (%, negative = inhibition) at 1uM” value was 15.1%.
For `COc1ccccc1C(CNC(=O)c1cccc(S(=O)(=O)Nc2ccc(C)cc2)c1)N(C)C` (stereo not drawn), the “hERG current change (%, negative = inhibition) at 1uM” value was 0.197%.
`CN1CCN(C(=O)c2cccc(S(=O)(=O)N3CCCCC3)c2)CC1` was tested, and the “hERG current change (%, negative = inhibition) at 1uM” value was -0.128%.
For `CCCCCCCCC(=O)N1CCN(c2cc3c(cc2F)c(=O)c(C(=O)O)cn3CC)CC1`, the “hERG current change (%, negative = inhibition) at 1uM” value was -15.3%.
`Cc1ccc(C(=O)Nc2ccc(S(=O)(=O)N3CCc4ccccc43)cc2)o1` was tested, and the “hERG current change (%, negative = inhibition) at 1uM” value was 0.408%.
For `O=C(CN(c1cc(Cl)ccc1Cl)S(=O)(=O)c1ccccc1)N1CCOCC1`, the “hERG current change (%, negative = inhibition) at 1uM” value was 8.35%.
For `Cc1cc(C(=O)N2CCC3(CC2)OCCO3)cs1`, the “hERG current change (%, negative = inhibition) at 1uM” value was -0.0188%.
With `CC(=O)Nc1ccc(CN2CCN(CCc3ccccc3)C(CCO)C2)cc1` (stereo not drawn) the “hERG current change (%, negative = inhibition) at 1uM” value was 5.38%.
In the case of `COc1ccccc1NC(=O)c1cccc2c(Br)cccc12`, the “hERG current change (%, negative = inhibition) at 1uM” value was 7.18%.
With `C/C(=C\c1cccc(Cl)c1)C(=O)c1c(C)cc(C)[nH]c1=O` the “hERG current change (%, negative = inhibition) at 1uM” value was 12.2%.
With `CCCCCCC(=O)Nc1nc(C)c(-c2csc(Nc3ccccc3OC)n2)s1` the “hERG current change (%, negative = inhibition) at 1uM” value was 14.7%.
For `COC(=O)C1=C(C)N(CCC2=CCCCC2)C(=O)C1`, the “hERG current change (%, negative = inhibition) at 1uM” value was 11%.
For `CCC1(C)Cc2c(sc3nnn(CC(=O)Nc4ccc(C)cc4)c(=O)c23)CO1` (stereo not drawn), the “hERG current change (%, negative = inhibition) at 1uM” value was 18%.
With `CCN1CCC(NC(=O)Nc2ccccc2C(=O)OC)CC1` the “hERG current change (%, negative = inhibition) at 1uM” value was 6.74%.
With `Cc1nn(Cc2ccccc2)c(Cl)c1C(=O)OCC(=O)NC(=O)NC12CC3CC(CC(C3)C1)C2` the “hERG current change (%, negative = inhibition) at 1uM” value was 12.4%.
With `O=C(COc1nsnc1N1CCOCC1)Nc1ccc(Br)cc1` the “hERG current change (%, negative = inhibition) at 1uM” value was 6.78%.
With `O=P(NS(=O)(=O)c1ccc(Cl)cc1)(Oc1ccccc1)Oc1ccccc1` the “hERG current change (%, negative = inhibition) at 1uM” value was 0.444%.
With `COc1ccccc1C(=O)Nc1nnc(S(=O)(=O)N2CCCCC2)s1` the “hERG current change (%, negative = inhibition) at 1uM” value was 14.7%.
With `Cl.N=c1n(CCO)c2ccccc2n1Cc1ccc(Cl)cc1` the “hERG current change (%, negative = inhibition) at 1uM” value was -14.6%.
`CN(CC(=O)Nc1ccc(Cl)c(Cl)c1)C(=O)C1CCCC1` was tested, and the “hERG current change (%, negative = inhibition) at 1uM” value was 5.9%.
`O=C(Nc1cc(Cl)cc(Cl)c1)C1CC(=O)N(C2CCCC2)C1` (stereo not drawn) was tested, and the “hERG current change (%, negative = inhibition) at 1uM” value was -1.6%.
For `Cn1c(CC(=O)Nc2ccccc2)nnc1SCC(=O)c1ccccc1`, the “hERG current change (%, negative = inhibition) at 1uM” value was 12.7%.
`CCn1c(C)nc2cc(OC)ccc21` was tested, and the “hERG current change (%, negative = inhibition) at 1uM” value was 10.5%.
`COc1cc(NC2c3ccccc3C(=O)N2c2cc(C)ccn2)cc(OC)c1OC` (stereo not drawn) was tested, and the “hERG current change (%, negative = inhibition) at 1uM” value was 13.1%.
With `CCN(CC)S(=O)(=O)c1cc(NC(=O)c2n[nH]c(=O)c3ccccc23)ccc1C` the “hERG current change (%, negative = inhibition) at 1uM” value was 6.54%.
In the case of `COc1ccc(NC(=O)c2cc(-c3ccncc3)nc3ccc(Br)cc23)cc1OC`, the “hERG current change (%, negative = inhibition) at 1uM” value was -0.401%.
`CC(=O)Nc1ccc(-n2c(C)nc(=O)c(-c3ccccc3)c2C)cc1` was tested, and the “hERG current change (%, negative = inhibition) at 1uM” value was 16.9%.
`CCOC(=O)c1ccc(OCCOc2ccccc2C)cc1` was tested, and the “hERG current change (%, negative = inhibition) at 1uM” value was 11.5%.
In the case of `CCCN1CNC(=S)N(c2cccc(C)c2)C1`, the “hERG current change (%, negative = inhibition) at 1uM” value was 14.5%.
In the case of `Cc1oc(-c2ccoc2)nc1CN(Cc1ccccc1)CC1CC1`, the “hERG current change (%, negative = inhibition) at 1uM” value was 5.28%.
`CCc1ccc(Nc2nnc(SCC(=O)N(C)C3CCS(=O)(=O)C3)s2)cc1` (stereo not drawn) was tested, and the “hERG current change (%, negative = inhibition) at 1uM” value was -8.13%.
In the case of `NS(=O)(=O)c1ccc(NC(=O)c2ccc3c(c2)OCO3)cc1`, the “hERG current change (%, negative = inhibition) at 1uM” value was 15.8%.
`CCOP(=S)(OCC)SCCSCC` was tested, and the “hERG current change (%, negative = inhibition) at 1uM” value was 12%.
For `Cc1ccc2c(Cl)c(C)c(N3CCCCC3)nc2n1`, the “hERG current change (%, negative = inhibition) at 1uM” value was 1.91%.
With `N#Cc1cccc(NC(=O)CNc2cccc(S(=O)(=O)N3CCCCC3)c2)c1` the “hERG current change (%, negative = inhibition) at 1uM” value was 6.62%.
With `O=C(COC(=O)c1ccccc1F)NNC(=O)c1ccccc1` the “hERG current change (%, negative = inhibition) at 1uM” value was 15.5%.
With `CCC1Nc2ncnc(N3CCN(c4ccccc4)CC3)c2N(Cc2ccc(Cl)cc2)C1=O.O=C(O)C(F)(F)F` (stereo not drawn) the “hERG current change (%, negative = inhibition) at 1uM” value was 11.1%.
For `Cc1cc(C)n(-c2ccc(NC(=O)C3CCCCN3C(=O)c3cc(C)oc3C)cc2)n1` (stereo not drawn), the “hERG current change (%, negative = inhibition) at 1uM” value was 4.95%.
`Cc1cccc(N2CCN(C(=O)CCC(=O)N3CCOc4ccc(Cl)cc43)CC2C)c1` (stereo not drawn) was tested, and the “hERG current change (%, negative = inhibition) at 1uM” value was 3.68%.
For `CC(C)[C@H](NC(=O)c1ccco1)C(=O)OCC(=O)N1CC(=O)Nc2ccccc21`, the “hERG current change (%, negative = inhibition) at 1uM” value was 4.97%.
